Test results reported in the BET-seq Pho4 binding data (Le et al. 2018).
Some of the results follow. Values were computed here from the reads of four pooled replicates and scatter widely.

Target: T1, Pho4 (S. cerevisiae) (UniProt P07270)
T1 sequence: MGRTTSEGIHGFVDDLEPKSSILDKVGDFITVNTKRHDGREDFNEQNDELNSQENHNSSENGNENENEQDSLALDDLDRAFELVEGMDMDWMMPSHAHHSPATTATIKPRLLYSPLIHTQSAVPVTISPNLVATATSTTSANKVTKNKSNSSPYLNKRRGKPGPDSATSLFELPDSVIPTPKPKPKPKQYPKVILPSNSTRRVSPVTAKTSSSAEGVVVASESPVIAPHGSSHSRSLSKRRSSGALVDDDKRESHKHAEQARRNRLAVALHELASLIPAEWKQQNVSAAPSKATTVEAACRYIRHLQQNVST
Test: relative binding free energy (BET-seq); higher = weaker binding
Conditions: reference: library average

Row | Sequence | relative binding free energy [kcal/mol]
1 | TGAAGCACGTGTTGAT | -0.07
2 | GAGCGCACGTGGGCGG | -0.2
3 | TGGATCACGTGAAATA | 0.57
4 | TGTGACACGTGCTAGA | -0.07
5 | TAGATCACGTGTCTGT | 0.13
6 | TAGTGCACGTGTTCGG | -0.06
7 | CGTTTCACGTGTGCTA | 0.25
8 | TGTTGCACGTGCACGT | -0.17
9 | TAGGTCACGTGGACGA | 0.22
10 | GATGACACGTGAGTTA | 0.29
11 | TGGGCCACGTGGCATG | -0.12
12 | TGTTGCACGTGTAGAC | 0.05
13 | GCGATCACGTGGTTGT | 0.11
14 | GAAGTCACGTGTATTA | 0.07
15 | TGACTCACGTGGGGGC | 0.06
16 | TATTTCACGTGTAGTG | 0.29
17 | TGGTACACGTGACGTT | 0.2
18 | GTGGGCACGTGTCTTG | -0.02
19 | CTTTACACGTGCGGGT | 0.1
20 | TATTACACGTGATTGC | 0.29
21 | TGATACACGTGGGATT | -0.02
22 | TTCGACACGTGGTGGA | 0.03
23 | AGATCCACGTGAGGGG | 0.17

Row | Sequence | relative binding free energy [kcal/mol]
24 | GGGTGCACGTGCAGGG | 0.04
25 | TAAGTCACGTGGTTGT | 0.05
26 | TGGGCCACGTGAGTAT | 0.18
27 | CTTGGCACGTGTGATG | -0.01
28 | ATATTCACGTGAGGGT | 0.16
29 | TATGTCACGTGTACGG | 0.07
30 | GTAATCACGTGGATAG | 0.31
31 | TTGTTCACGTGATAGA | 0.35
32 | GGGCGCACGTGCATGG | -0.11
33 | GTGGCCACGTGTCTGT | -0.01
34 | GGGAGCACGTGTTGAT | -0.27
35 | GTCTTCACGTGAGTGG | 0.55
36 | AGGAGCACGTGTCTGG | -0.18
37 | TTTGACACGTGTTATA | 0.06
38 | GAGGTCACGTGTAGAT | 0.23
39 | TGTTTCACGTGGCAGT | 0.37
40 | AGTTTCACGTGACGAG | 0.41
41 | CTTAGCACGTGGTGAA | -0.19
42 | TGTGCCACGTGTAGTG | -0.18
43 | CTAATCACGTGGGTTG | -0.02
44 | TGATACACGTGGAGGT | 0.2
45 | GATTACACGTGTAGTT | 0.31
46 | AAGTGCACGTGGCGTA | -0.1

Row | Sequence | relative binding free energy [kcal/mol]
47 | TAGGACACGTGTGGTC | 0.09
48 | AGTGGCACGTGTAGTC | -0.04
49 | TTAAGCACGTGTCTAG | -0.06
50 | ACAGGCACGTGGGTAG | -0.36
51 | GTGTACACGTGTGGAG | 0.06
52 | ACGGGCACGTGTGGAT | 0.05
53 | GTTCGCACGTGTAGTA | 0.1
54 | ATTATCACGTGTTATG | 0.07
55 | ATGTTCACGTGGTCAT | 0.03
56 | TAATGCACGTGATGCG | -0.06
57 | GAATGCACGTGGTGAG | -0.04
58 | TGGGGCACGTGACGCT | -0.07
59 | TTAGGCACGTGAACGG | -0.06
60 | CTGTGCACGTGTTGTG | -0.05
61 | TTTGACACGTGATTAG | 0.15
62 | GGGTTCACGTGGCACG | 0.37
63 | GAGAACACGTGTGTAT | 0.23
64 | CATTGCACGTGATGGT | 0.16
65 | AGTTGCACGTGAAATG | 0.35
66 | TAATTCACGTGGTATA | 0.13
67 | CGGTTCACGTGGGAGA | 0.28
68 | GTGCTCACGTGTGAAG | 0.29
69 | GGGGTCACGTGGTTAC | 0.22

Row | Sequence | relative binding free energy [kcal/mol]
70 | AGACGCACGTGGTGGG | -0.18
71 | TGAGTCACGTGTGTTC | 0.07
72 | GGGATCACGTGATGAT | 0.2
73 | ATGGGCACGTGGCTCA | -0.15
74 | TTATTCACGTGATTCT | 0.19
75 | CGCGGCACGTGGCGTG | -0.23
76 | GAGGTCACGTGCGTTA | 0.03
77 | ATAGGCACGTGGTGGG | -0.18
78 | GTCATCACGTGAAGTT | 0.4
79 | ACGTACACGTGTTGTT | 0.1
80 | TTAAGCACGTGTGATT | -0.04
81 | TCGTTCACGTGCTGGG | 0.3
82 | ATAGTCACGTGATGGA | 0.16
83 | GGGAGCACGTGAGTGC | 0.08
84 | TCGAGCACGTGATGGG | 0.08
85 | TTGTACACGTGTGGAT | 0.02
86 | TATGACACGTGGGGTA | -0.13
87 | TGAAACACGTGGGGCT | 0.01
88 | GTGTACACGTGGGCGA | -0.11
89 | TATGTCACGTGGCATT | -0.13
90 | GGTCTCACGTGGTGTC | 0.3
91 | CATTACACGTGGTTTA | 0.06
92 | AGTTTCACGTGCTGTT | 0.24

Row | Sequence | relative binding free energy [kcal/mol]
93 | TTGTACACGTGTGACA | 0.17
94 | CGGGGCACGTGGTAGT | -0.13
95 | AATAACACGTGTTTTA | 0.1
96 | GACTTCACGTGGTTTG | 0.25
97 | GGCATCACGTGGAGGA | 0.24
98 | TGGTTCACGTGCGGGC | 0.22
99 | TAGATCACGTGGTATA | -0.07
100 | ATGGGCACGTGCGATG | -0.09
101 | GTTTCCACGTGATATG | 0.15
102 | GTTGTCACGTGCGTGC | 0.02
103 | TGGAGCACGTGTTACT | -0.12
104 | GCGGACACGTGTAGTG | 0.11
105 | GAGTTCACGTGTAGGA | 0.21
106 | GTGAGCACGTGTCGAG | -0.01
107 | TTCGGCACGTGTTAAG | -0.04
108 | GAGTTCACGTGCGGTG | 0.36
109 | AGCTGCACGTGGGGTA | -0.21
110 | AGAGGCACGTGTGTTA | -0.16
111 | GTAGGCACGTGATGTC | 0.05
112 | TAAGACACGTGTAGGA | 0.1
113 | TTACACACGTGGTGTT | -0.09
114 | CAGGCCACGTGGTGGT | -0.15
115 | GTTGTCACGTGATGCG | 0.28
